This is one part of the list. The main result of the screen is listed elsewhere. These columns were measured beside it and carry no call. The list favours compounds with an active or inconclusive main result.
Experiment: qHTS Assay for Lipid Storage Modulators (AID 1519)
Conditions: Drosophila S3 cells, BODIPY lipid droplet/cell ratio, laser cytometry; measured here: cell count channel max response; cells loaded with oleic acid
In short: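 Cells seeded at 5,000 per well were treated with compounds over a concentration series and loaded with oleic acid (400 uM, as added). Lipid droplet fluorescence (488 nm excitation, 500-530 nm channel) was read by laser-scanning cytometry and normalized to 20 uM Triacsin C.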

| Compound | max response [%] |
| --- | --- |
| Cc1cccc(CNc2ncncc2-c2cccnc2)c1 | 13.9 |
| COc1ccc(-c2nc3cnc(N(C)C)nc3n(-c3ccccc3)c2=O)cc1 | 45.7 |
| COc1ccc2c(OC)c3ccoc3nc2c1OC | 130 |
| O=c1cc(-c2ccccc2O)oc2c(O)c(O)ccc12 | 72.9 |
| CNc1ncncc1-c1ccccc1CN(C)C | 36.5 |
| Cc1c(C2CCN(CCc3ccccc3)CC2)noc1-c1ccc(Cl)cc1 | 70 |
| COCCn1c(=O)c(C)nc2cnc(OCc3ccccc3)nc21 | 35.6 |
| COc1ccc(-c2cc(=O)c3ccccc3o2)cc1 | 28.8 |
| COc1ccc(Oc2ncc3nc(CCc4ccccc4)c(=O)n(CCC#N)c3n2)cc1 | 0.462 |
| COc1ncc2nc(CCc3ccccc3)c(=O)n(CCC#N)c2n1 | 28.5 |
| O=c1c(CCc2ccccc2)nc2cnc(N3CCOCC3)nc2n1C1CC1 | 25.6 |
| c1ccc(CNc2nc(-c3cccnc3)nc3ccccc23)cc1 | 24.5 |
| COc1ccc(C(=O)N2CCC[C@@]3(CCN(C(=O)Nc4cccc(F)c4)C3)C2)cc1 | 33.1 |
| CN(CCc1ccc(Cl)c(Cl)c1)C[C@@H](O)COc1ccc(NS(C)(=O)=O)cc1 | 62.2 |
| COc1ccccc1-c1cc(N(C)Cc2ccco2)ncn1 | 29.2 |
| FC(F)(F)c1ccccc1-c1cc(NCc2cccnc2)ncn1 | 39.3 |
| COc1ccc(C(=O)N2CCC3(CC2)CN(c2ccccc2)C3)cc1 | 31.8 |
| O=c1c(-c2cccs2)nc2cnc(N3CCNCC3)nc2n1CCc1ccccc1 | -0.203 |
| CN1CCN(c2ncc3nc(-c4ccccc4)c(=O)n(Cc4cccs4)c3n2)CC1 | 36.9 |
